Laboratory results reported in the RNAGym collection of RNA variant scans (doi:10.7554/elife.90254).
The source gives no read counts; variants with many changes may rest on few reads.

B1: LINE1-mini (parent)
chain: GGCAGAGCUCAACACAGCGUGGCAAAGUGGCUGUGGCUAGACUGCC

Variants of: B1
Experiment: self-cleavage, relative activity (ratio to wild type); higher = more cleavage; in vitro, sequencing; the parent is a self-cleaving ribozyme

Variant	self-cleavage
C8A C10A A25U	0.01
G7U U38C G44A	0.19
C8A C10G C13A C18U	0.01
C8A C23U G27A G44U	0.16
C8A C18A G40A A41C	0.07
G7U G40A A41C C45U	0.04
C8A A26G G36A C45A	0.18
G7U U28A C46A	0.03
G7U U9C G36C C37A A39G	0
C8A G17C C45U	0.06
C8A C13G G22C A26C G33A	0.05
C8A A11U C37G A41G	0.01
C8A A11G G36C	0
C8A A16U C18A G33C C37U	0.05
C8A C13U C42G	0.3
C8A A11C C15U A16C A26U G33U	0.02
C8A C13A C23U A41U	0.13
C8A A39G C46A	0.14
G7U U9G G21A C23G A24C A26U G30C U34C	0.02
C8A C15U G44U	2.21
G7U U9C C15U	0.01
G7U U9C A25C	0.02
G7U U9G G22U G29C	0.03
C8A C37U C46G	0.02

Variant	self-cleavage
C8A C18U G21U G35U A39U	0.22
C8A G17C A26G U32C	0.16
G7U U9G A24C U28G U34A A39C C46A	0.02
C8A A12C C23A	0.01
C8A A12C C18A G27C U28A	0.02
C8A A39G G40U	0
G7U G36A G44C	0.11
C8A C13U G21U U32A	0.86
C8A A26U U34G	0.24
C8A G17U G44A	0.16
C8A C13G U32G	0.34
C8A C23G C42A	0.2
C8A A14G G22U	0.06
C8A C10A G27C G33A	0.04
C8A C10U C13A G27A U34G U38C C42U	0.04
C8A A14C C37U G44U C45U	0
G7U G30C G35U C46G	0.02
C8A C13A A16C G40C	0.25
G7U U9C C18U A24G C46A	0.01
C8A A11U A12C G29A G30U	0.01
G7U G30C C31U G40A C42G	0.19
C8A A16U C23U	0.12
C8A G19U C23A G40A U43G C46U	0.01
C8A A25C G40A	0.06

Variant	self-cleavage
C8A C13G G35C C45G	0.04
C8A A41C C42U	0.23
C8A C15G C31U U34G C45U	0.15
C8A C18A G35U	0.02
G7U U9A C18U A26C G30C	0.17
C8A G17C C23G A24U G33A	0.1
C8A A26U G40U	0.25
C8A A11C G36U C42U	0.04
C8A C10G A24U U28A G36U	0
C8A C10U C15A G30A A41U	0.11
C8A A16U G22U C23G	0.24
C8A A16U A25C C31G	0
C8A A16U C23G U32G	0.31
G7U U32G A39C	0.13
C8A A14U G19C G29U C31A	0.07
C8A A24C C31G	0.25
C8A C15A A24C G30A	0.27
C8A C18A G29U	0.14
G7U G40C C46A	0.25
G7U U28C G29U C31A U34A	0.03
G7U U20G G21C	0.27
C8A C15U G30C G40A C46G	0.64
C8A A25C C46A	0.11
C8A A16G G29C C42U	0.01

Variant	self-cleavage
C8A G17U G30U	0.18
C8A C31A G40U	0.1
C8A C10G C13G G17A G21A	0.06
C8A A14U G29U	0.14
C8A C10A G35A	0.05
C8A C37A C42G	0
C8A A12U U20A C31G	0.23
G7U U9C C46U	0.03
G7U G35A C37A	0.04
C8A A26U C37A	0.05
G7U U20C G33C	0.09
C8A A14C G33A	0.12
C8A C10U C23U A26U	0.14
C8A C10A C18G G29A G40C	0.01
G7U G35U U38A A41C	0.14
C8A G19A G22C G30U	0.11
C8A C15U G22A G35A U38A G44C	0.1
C8A A24G C42A	0.22
C8A C15G C18A	0.12
C8A C13A G33C	0.14
C8A C13A A14C C18U G19A C23U A25G G29C G40C	0.08
C8A C18G U20A C45A	0.15
G7U G33U G40C	0.21
G7U U32A A39U G44A	0.23

Variant	self-cleavage
C8A C13G C18A G27A C46A	0.03
C8A C15A U28A	0.11
C8A G19C A39U C42U	0.03
C8A A11G G21U A39U	0.01
C8A A16C U20C	0.11
G7U U9G G27A	0.12
C8A G17A C18U U28G	0.1
G7U G30U G40C	0.15
C8A A16U U34G	0
C8A C42U C45A C46A	0.06
C8A A14C U20G	0.05
C8A C10A A11G C15G G22U G30C G33U C45A	0
C8A C37A U38G	0.03
G7U G30C G35C A39G	0.06
C8A A12U A25U C42G	0.05
C8A A11G U20A C31U	0.01
G7U U20C G36C	0.03
C8A A12C A25C A39C	0.01
C8A C15G G44U	0.06
C8A C13A G33A U43A	0.35
G7U U9G C46A	0.12
C8A C15U G29A G33U A41C C46A	0.19
G7U U9C G21C C31U	0.03
C8A A26G U32G G33U	0.11

Variant	self-cleavage
C8A A26C G35U C37A	0.02
C8A C23U U43C	0.06
C8A A12C C13G U28C G36U	0.05
C8A C10A C18G G19U	0.05
C8A A14C C31U U32G	0.06
C8A C15U G27U U38A	0.15
C8A A12G G21A A25C	0.04
C8A C10G G30U	0.02
C8A C18U A25U A26U G27C G35C	0.13
C8A A11C C13G A14C C18A G19A U28G G33C G36C	0
C8A C13A G19U	0.22
G7U U9A C10A G17A G19A G21A G29C	0.02
C8A A11C G35A	0.01
C8A C13A G17C A26U	0.25
C8A A11C A12G G29A G36U G40C C42G	0.01
C8A C10G C42U	0.01
C8A C10A A41U	0.02
C8A A12U G17U G36A	0.04
C8A C10U G36U	0.02
G7U G33U G35A A39G	0.39
C8A A39U U43C C45A C46U	0.5
G7U U9C C45U	0.03
C8A C15U C18G G33A A39C	0.06
G7U U9A C13G C46A	0.14

Variant	self-cleavage
C8A C18A A26G A41C C45A	0.07
C8A A25G G29U C31G	0.12
C8A A14U U34A	0.57
C8A A14U U34G	0.08
C8A C10A G17U	0.04
G7U U9A G21A G35U	0.09
C8A A26U C31U	0.15
C8A C37A C45G	0.16
G7U G33A U34G G40C	0.13
G7U U28G G30A	0.04
C8A C15A U38A C42G	0.17
C8A A24U G33C G44U	0.2
G7U G30C G44A	0.04
C8A C18G G19A C23A U34A G44A	0.07
G7U U9C A11U C45U	0
C8A G17C C42A	0.09
C8A C10G G44C	0.05
G7U U34C C45G	0.07
C8A C13A U38A	0.05
C8A A11C C46U	0.01
C8A C31A G33U	0.21
C8A C13A C15G	0.22
G7U U20A A25G A26C C46U	0.06
